From publication PMC6919601, “Identification of Plasmodium dipeptidyl aminopeptidase allosteric inhibitors by high throughput screening” (PLoS ONE, 2019) come the findings set out here.

Hit rate of the full screen: of about 110,000 compounds, about 230 (0.21%) showed an effect of 50% or more. The list shows a part of the results.
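Note: 30 min substrate incubation versus DMSO and 10 µM JCP410 controls.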

Chain of DPAP1 (Q8IIJ9 whole entry, looked up): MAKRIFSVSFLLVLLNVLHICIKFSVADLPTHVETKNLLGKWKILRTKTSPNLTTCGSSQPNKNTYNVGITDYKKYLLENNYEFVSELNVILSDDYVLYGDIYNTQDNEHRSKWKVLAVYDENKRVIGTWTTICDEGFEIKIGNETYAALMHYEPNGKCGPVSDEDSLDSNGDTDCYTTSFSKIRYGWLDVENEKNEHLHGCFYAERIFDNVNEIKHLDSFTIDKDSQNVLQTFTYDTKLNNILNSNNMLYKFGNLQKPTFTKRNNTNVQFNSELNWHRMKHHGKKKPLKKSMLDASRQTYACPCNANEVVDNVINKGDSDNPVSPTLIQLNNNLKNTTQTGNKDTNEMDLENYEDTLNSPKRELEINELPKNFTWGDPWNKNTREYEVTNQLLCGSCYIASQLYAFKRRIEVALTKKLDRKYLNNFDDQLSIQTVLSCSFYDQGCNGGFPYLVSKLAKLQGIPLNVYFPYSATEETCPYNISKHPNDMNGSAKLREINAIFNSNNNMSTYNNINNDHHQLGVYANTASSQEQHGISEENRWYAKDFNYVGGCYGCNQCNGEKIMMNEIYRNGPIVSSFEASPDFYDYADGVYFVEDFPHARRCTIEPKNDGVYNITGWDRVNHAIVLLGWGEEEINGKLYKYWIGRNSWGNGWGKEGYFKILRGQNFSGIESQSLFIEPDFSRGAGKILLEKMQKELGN

This test addresses DPAP1 (Plasmodium falciparum, UniProt Q8IIJ9). Kind of test: primary screen, percent inhibition; read by cleavage of a fluorogenic dipeptide substrate; higher = more effect of the substance. Set-up: species or system P. falciparum D10 trophozoite lysates; single well.
Turning to `Cc1ccc(Oc2cc(-n3cncn3)ncn2)cc1`, the “% Inhibition @ 10 uM” value worked out at 3.21%.
Next, `Cc1cccc(NC(=O)CN2C(=O)N/C(=C/c3cccn3-c3ccccc3F)C2=O)c1`: -4.05%; `Cn1ncc(C(=O)NCC2CCN(C3CCCC3)C2)c1C1CCN(C(=O)OC(C)(C)C)CC1` (stereo not drawn): 8.98%.
Consider `CCc1c(C)nn2cnnc2c1O`, for which the “% Inhibition @ 10 uM” value is on record as -0.186%.
In the case of `CN1C(=O)c2ccccc2C(C(=O)N2CCN(C(=O)c3ccco3)CC2)C1c1cn(C)c2ccccc12` (stereo not drawn) it was 0.559%; in that of `COc1ccc(CC(=O)Cn2c(SCc3ccc(F)cc3)nc3ccncc32)c(OC)c1`, 8.62%; in that of `O=S1(=O)c2ccccc2Oc2ccccc21`, -2.63%.
Next, `COc1ccc(S(=O)(=O)N2CCC(n3c(O)nc4ccccc43)CC2)cc1OC`: 1%.
Next, `CCOCCCNC(=O)CN1C(=O)c2ccccc2Sc2ncccc21`: -0.959%.
For the compound `CCOc1ccc(-c2csc(/C(C#N)=C/c3cccc(Cl)c3)n2)cc1`, the “% Inhibition @ 10 uM” value was -4.31%.
In the case of `O=C(NCc1ccccn1)C(=O)NCC(c1cccnc1)N1CCOCC1` (stereo not drawn) it was -7.29%; in that of `Cn1c(SCC(O)COc2ccccc2)nc2ccccc21` (stereo not drawn), 0.0265%.
Consider `Cc1ccc(-c2nc(C#N)c(Nc3ccccc3)o2)cc1`, for which the “% Inhibition @ 10 uM” value worked out at 1.21%.
On to `CCCCCc1cnc(-c2ccccc2O)nc1`, for which the “% Inhibition @ 10 uM” value amounted to 0.219%.
As for `Clc1ccc(Cn2c(C3CCCO3)nc3ccccc32)cc1` (stereo not drawn), the “% Inhibition @ 10 uM” value is recorded as -4.82%.
Next, `COCCCNC(=O)Cn1ncc2c3ccccc3nc-2c1O`: 7.2%.
Next, `Cc1ccc2c(CC(=O)N(Cc3ccc(F)cc3)C3CCS(=O)(=O)C3)coc2c1C` (stereo not drawn): -4.19%; `O=C(C1=C(O)C(=O)N(c2ccccn2)C1c1ccc(F)cc1)c1ccc(Cl)cc1` (stereo not drawn): 2.82%.
Next, `Cc1ccc(S(=O)(=O)NCCCN2CCOCC2)cc1`: 3.32%.
With `C=CCC(C#N)(CC=C)c1ccc(OC)c(OC)c1`, the “% Inhibition @ 10 uM” value stood at 1.67%.
Consider `COC(C)(C)CCC[C@@H](C)C(O)CO` (stereo partly drawn), for which the “% Inhibition @ 10 uM” value was -5.46%.
In the case of `CCN(Cc1ccccc1)C(=O)C1CCN(c2nnc(C)c3c(C)n(-c4ccccc4)nc23)CC1`, the “% Inhibition @ 10 uM” value was -1.95%.
In the case of `OCCN1CCN(Cc2c(F)cccc2F)CC1` it was -1.41%.
`Cc1cccc(Cn2c(N3CCOCC3)nc3c2c(=O)[nH]c(=O)n3C)c1`: the “% Inhibition @ 10 uM” value is -4.6%.
As to `CCCC1=NN2C(=O)CC(=O)N=C2S1`, the “% Inhibition @ 10 uM” value is 5.04%.
Turning to `CCN(CC)S(=O)(=O)c1nnc(NC(=O)COc2ccccc2C)s1`, the “% Inhibition @ 10 uM” value is reported as 1.68%.
Next, `CCC1CCc2nc3sc(C(=O)NCc4ccc(OC)cc4)c(N)c3cc2C1` (stereo not drawn): 10.9%.
In the case of `CC(C)CCNc1ncnc2c1nc1n2CCCCC1` it was 7.44%.
Next, `Nc1cc[n+](C/C=C/c2ccccc2)cc1`: -2.53%.
`COc1ccc(-n2c(C)cc(/C=C3/C(=N)N4C(=NC3=O)SN=C4S(C)(=O)=O)c2C)cc1`: the “% Inhibition @ 10 uM” value was 1.85%.
With `CCCCC(C(=O)O)N1C(=O)c2ccccc2C1=O` (stereo not drawn), the “% Inhibition @ 10 uM” value came out at 2.24%.
Next, `COc1ccc(S(=O)(=O)Nc2ccc(C)cc2NS(=O)(=O)c2ccc(OC)cc2)cc1`: 0.727%.
In the case of `CC1=C(C(=O)Nc2ccc(C)cn2)C(c2cccc(Br)c2)C2=C(O)CC(C)(C)CC2=N1` (stereo not drawn) it was 1.4%.
In the case of `Cc1cccc(-c2noc(-c3ccccn3)n2)c1` it was -3.33%.
Take `CCOc1ccc(NC(=O)c2ccc(OC)cc2)cc1`: the “% Inhibition @ 10 uM” value is -5.38%.
In the case of `COc1ccc(C2C3=C(O)CC(C)(C)CC3=NC(C)=C2C(=O)Nc2ccccc2C)c(OC)c1` (stereo not drawn) it was 0.658%; in that of `CC1Cc2scc[n+]2-c2ccccc2N1C(=O)Nc1ccccc1` (stereo not drawn), 5.49%; in that of `CC1C2=C(O)CC(C)(C)CC2=Nc2sc(C(N)=O)c(N)c21` (stereo not drawn), 7.24%.
Next, `CC(C)(C)NC(=O)Nc1cccc(Cl)c1`: 4.57%; `O=C(Nc1ccc2c(c1)OCCO2)Nc1cccc2ccccc12`: 0.605%.
With `O=[N+]([O-])c1ccccc1NS(=O)(=O)c1ccccc1[N+](=O)[O-]`, the “% Inhibition @ 10 uM” value is given as -0.999%.
In the case of `Nc1ccc(-c2nc3ccc(N)cc3s2)cc1` it was -5.49%; in that of `CC(=O)N1N=C(c2ccc(O)cc2)CC1c1ccc(Cl)c(Cl)c1` (stereo not drawn), -5.92%; in that of `COc1cc(OC)cc(C(=O)Nc2ccccc2C)c1`, -12.2%.
In the case of `CCn1c(N2CCCCCC2)nc2c1c(=O)[nH]c(=O)n2C` it was -3%.
Next, `CC(=O)NS(=O)(=O)c1cccnc1Nc1cccc(Cl)c1C`: -0.46%.
`COc1ccc(C(=O)N/C(=C/c2ccc(OC)c(OC)c2)C(=O)N2CCOCC2)cc1`: the “% Inhibition @ 10 uM” value was -2.07%.
Next, `O=C(Cn1cnc(S(=O)(=O)N2CCCC2)c1)NC1CCCc2ccccc21` (stereo not drawn): -4.36%.
Next, `COc1ccccc1OCc1nc(C#N)c(N(C)C)o1`: -0.958%; `Cc1nc2ncnn2c(O)c1CCC(=O)NCCc1c[nH]c2ccccc12`: 2.12%.
In the case of `O=C1NC(=S)S/C1=C\c1c(NCC2CCCO2)nc2ccccn2c1=O` (stereo not drawn) it was -6.95%; in that of `O=C(N1CCOCC1)N1CCN(Cc2ccccc2)CC1`, 1.54%.
For the compound `O=C(c1ccc(CS(=O)c2ccccc2Cl)o1)N1CCOCC1` (stereo not drawn), the “% Inhibition @ 10 uM” value is reported as 1.77%.
Consider `CC(C)c1ccc([C@H]2[C@@H]3CCCC=C3C(C#N)=C(N)C2(C#N)C#N)cc1`, for which the “% Inhibition @ 10 uM” value stood at 0.0719%.
Next, `CC(C)(C)c1ccc(OCCCCCN2CCOCC2)cc1`: 5.35%; `CSc1nc(N2CCOCC2)c2ccccc2n1`: -4.65%.
Regarding `CN(C)S(=O)(=O)c1ccc(C(=O)NCCC23CC4CC(CC(C4)C2)C3)cc1`, the “% Inhibition @ 10 uM” value was -5.51%.
As for `C=CCNC(=S)Nc1sc2c(c1C(=O)OCC)CCCC2`, the “% Inhibition @ 10 uM” value is recorded as 7.47%.
In the case of `Cn1cc(S(=O)(=O)N2CCCC2)cc1C(=O)N1CCc2ccccc2C1` it was 0.813%; in that of `O=C1c2ccccc2-c2onc3c(Oc4ccc(Cl)cc4)cc(O)c1c23`, -2.19%; in that of `CCn1c(C)c(C)c2cc(C(=O)NCCN3CCCCC3C)ccc21` (stereo not drawn), 1.26%.
In the case of `COc1ccccc1CC(C)Nc1ccc(F)c(Cl)c1` (stereo not drawn) it was 2.7%; in that of `CCOC(=O)C1=C(C)N(C)C(=S)NC1c1cc(OC)ccc1OC` (stereo not drawn), -3.98%; in that of `Cc1cccn2c(=O)c(/C=N/Cc3ccccc3)c(NCc3ccco3)nc12`, 12%.
Next, `Cn1c(C(=O)NCC2CCCO2)cc2c(=O)n3ccccc3nc21` (stereo not drawn): -7.09%.
In the case of `c1cc2c3c(cccc3c1)C(N1CCOCC1)=N2`, the “% Inhibition @ 10 uM” value was -3.27%.
With `CCOc1ccc(C(=O)Nc2sc3c(c2C(N)=O)CCC(C)C3)cc1` (stereo not drawn), the “% Inhibition @ 10 uM” value is listed as -4.15%.
Next, `CCOc1cccc(/C=C2/NC(=O)N(c3cccc(Cl)c3)C2=O)c1O`: -3.04%; `CN(C)c1ccc(C(=O)NC2CC(C)(C)NC(C)(C)C2)cc1`: 0.35%.
In the case of `COc1ccc(-c2noc(CN(C(=O)/C=C/c3ccccc3Cl)C(C)C)n2)cc1` it was 4.15%; in that of `COc1cccc2cc(C(=O)N3CCN(C(=O)c4ccccc4)CC3)c(=O)oc12`, 2.17%; in that of `N#Cc1c(-c2ccccc2)nc2n(c1=O)CCS2`, -3.96%.
Next, `CCOc1ccc(-c2nonc2NC(=O)CC(C)C)cc1OCC`: 0.248%; `Cc1ccc(CN2CCN(c3ccc([N+](=O)[O-])cc3)CC2)c(C)c1`: 4.81%.
In the case of `CSc1nc(O)c2c(-c3ccc(F)cc3)c3c(nc2n1)CC(C)(C)CC3=O`, the “% Inhibition @ 10 uM” value was -0.95%.
Next, `CC(CCc1ccccc1)NC(=O)CCCCn1c(=O)[nH]c2ccsc2c1=O` (stereo not drawn): -0.228%.
Next, `Cc1ccc(C2=NN(S(C)(=O)=O)C(c3cc4ccccc4nc3Cl)C2)cc1` (stereo not drawn): -2.65%.
Next, `Cn1cccc1Cc1nnc(SCC(=O)N2CCOCC2)n1CCc1ccccc1`: -5.76%; `COc1ccc(S(=O)(=O)Nc2ccc(S(=O)(=O)Nc3ccc(Cl)cc3)cc2)cc1OC`: -6.51%.
Regarding `NS(=O)(=O)c1ccc(CCNC(=O)c2nc(-c3ccc(Cl)cc3)n3c2CCCCC3)cc1`, the “% Inhibition @ 10 uM” value amounted to 4.61%.
Next, `Cc1ccc(C(=O)Nc2ccc(-c3nc4ncccc4o3)cc2)c2ccccc12`: -7.44%; `CCOc1ccccc1N1CCN(C(=O)C23CC4CC(CC(C4)C2)C3)CC1`: -4.52%.
As to `C=CCC(N)(/C=C/c1ccccc1)CC=C`, the “% Inhibition @ 10 uM” value is listed as -4.43%.
In the case of `O=C(COc1ccc(Cl)cc1Cl)Nc1ccc(C(=O)O)cc1` it was -3.65%.
As to `COC(=O)c1nnn(-c2ccc(C)cc2C)c1C(=O)OC`, the “% Inhibition @ 10 uM” value is given as -7.46%.
Next, `COc1cc(C=C2C(=O)N(C)C(=O)N(C)C2=O)ccc1OCc1ccc(C)cc1`: 9.09%.
Next, `COc1ccc(/C=C(/NC(=O)c2ccco2)C(=O)NCCc2c[nH]c3ccccc23)cc1OC`: -1.26%.
In the case of `NC(=O)NC(CC(c1ccccc1)c1ccccc1)c1ccccc1` (stereo not drawn) it was 4.7%; in that of `CCN1CCN(CCCNC(=O)C2CCN(S(=O)(=O)N3CCCCC3)CC2)CC1`, 0.387%; in that of `CCC(C)Oc1ccccc1/C=C1/SC(=O)NC1=O` (stereo not drawn), 4.32%.
For the compound `CCSc1nnc(-c2ccccc2N)c(O)n1`, the “% Inhibition @ 10 uM” value is given as -1.56%.
Turning to `CN(CC(=O)NC1CCCCC1)S(=O)(=O)c1ccc(F)cc1`, the “% Inhibition @ 10 uM” value was -2.29%.
Next, `NC(=O)c1c(N)sc2c1CCCCC2`: 43.2%; `Cc1ccc(Cn2cc(C=O)c(-c3ccc(F)cc3)n2)cc1`: 3.3%.
Next, `CCOc1ccccc1NC(=O)c1ccccc1Cl`: 0.827%; `CCOc1ccc(C(=O)C2=C(O)C(=O)N(CCN(C)C)C2c2ccccc2F)c(C)c1` (stereo not drawn): -1.93%.
Next, `Oc1c2nc3ccccc3c-2ncn1Cc1ccccc1Cl`: 3.24%.
For the compound `NC(=O)c1cc(S(=O)(=O)NCc2cccs2)cs1`, the “% Inhibition @ 10 uM” value is listed as -1.39%.
`O=C(N/C(=C\c1cccnc1)C(=O)N1CCC(O)CC1)c1ccccc1`: the “% Inhibition @ 10 uM” value is listed as -7.11%.
In the case of `CCOC(=O)C1=CN(Cc2ccc(Cl)cc2)C=C(C(=O)OCC)C1c1ccc2c(c1)OCO2` it was -3.23%.
In the case of `CCO/C(O)=C1/C(C)=Nc2ncnn2C1c1cc(OC)ccc1OC` (stereo not drawn) it was 0.0842%.
Next, `O=S(=O)(c1ccc(F)cc1)N1CCN(C/C=C/c2ccccc2)CC1`: -5.15%.
